Among all 310,000 compounds or so, about 2,200 (0.71%) showed an effect of 50% or more. Effects have a minus sign here. This is one part of the list. Where a SMILES comes first, the peptide text is derived from it. [ ]: non-standard residue; d: D form. The star is where a group is joined. Phe(4-Me) = Cc1ccc(C[CH](N)C(=O)O)cc1; Bz = O=C(c1ccccc1)*
What follows are compounds tested against human ether-à-go-go-related gene (hERG) potassium channel (human, UniProt Q12809) (assay: primary screen, population patch clamp on CHO cells stably expressing hERG).
Chain of human ether-à-go-go-related gene (hERG) potassium channel (Q12809 whole entry, looked up): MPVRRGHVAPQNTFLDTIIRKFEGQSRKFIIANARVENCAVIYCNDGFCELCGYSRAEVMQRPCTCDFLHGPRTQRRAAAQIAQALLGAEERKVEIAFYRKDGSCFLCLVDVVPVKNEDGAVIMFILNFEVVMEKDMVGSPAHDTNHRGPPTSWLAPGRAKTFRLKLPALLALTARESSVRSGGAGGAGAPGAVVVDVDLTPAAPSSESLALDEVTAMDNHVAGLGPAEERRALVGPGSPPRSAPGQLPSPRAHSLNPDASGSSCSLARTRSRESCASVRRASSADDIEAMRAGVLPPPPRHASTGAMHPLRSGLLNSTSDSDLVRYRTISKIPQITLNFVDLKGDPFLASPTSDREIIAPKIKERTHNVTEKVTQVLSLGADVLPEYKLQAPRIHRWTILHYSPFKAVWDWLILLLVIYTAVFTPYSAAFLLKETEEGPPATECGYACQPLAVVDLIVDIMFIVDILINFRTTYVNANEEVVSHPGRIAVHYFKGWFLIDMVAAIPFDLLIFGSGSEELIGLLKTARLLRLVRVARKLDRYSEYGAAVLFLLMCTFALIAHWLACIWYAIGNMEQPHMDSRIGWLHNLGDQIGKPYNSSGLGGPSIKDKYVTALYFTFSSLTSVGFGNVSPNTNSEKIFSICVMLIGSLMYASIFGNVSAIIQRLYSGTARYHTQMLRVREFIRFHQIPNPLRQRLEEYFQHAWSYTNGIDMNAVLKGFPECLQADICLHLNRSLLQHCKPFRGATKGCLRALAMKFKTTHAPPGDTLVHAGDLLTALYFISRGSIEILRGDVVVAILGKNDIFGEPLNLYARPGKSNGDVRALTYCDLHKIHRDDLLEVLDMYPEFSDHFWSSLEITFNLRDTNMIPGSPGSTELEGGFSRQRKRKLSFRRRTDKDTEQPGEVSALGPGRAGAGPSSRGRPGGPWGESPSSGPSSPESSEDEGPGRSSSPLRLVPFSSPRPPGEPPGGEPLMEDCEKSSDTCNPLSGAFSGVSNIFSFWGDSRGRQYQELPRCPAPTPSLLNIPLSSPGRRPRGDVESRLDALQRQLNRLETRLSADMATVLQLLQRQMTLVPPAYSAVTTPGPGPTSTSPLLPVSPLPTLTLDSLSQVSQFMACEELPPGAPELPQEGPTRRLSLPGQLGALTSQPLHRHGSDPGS

Point of comparison: `CCN1CCN(CCCNC(=O)C2CCN(c3nnc(-n4cccc4)s3)CC2)CC1`, “hERG current change (%, negative = inhibition) at 1uM” value 2.05%. Against it:
- Cc1ccc(C)c(NC(=S)N2CCN(S(C)(=O)=O)CC2)c1 — higher, 14.6%
- CCCCn1c(SCC(=O)NCc2ccco2)nc2c1c(=O)n(C)c(=O)n2C — higher, 7.48%
- CC(C)(C)NC(=O)Nc1cccc(Cl)c1Cl — lower, 0.426%
- Cc1ccc(-n2ncc3c2CC(C)(C)CC3NC(=O)CCN2CCCO2)cc1 (centres unmarked) — lower, -12.1%
- Cc1ccc(-n2c(-c3nn(C)c(C)c3Cl)n[nH]c2=S)cc1 — higher, 13%
- CN(C)CCN(C(=O)c1ccc2c(c1)CCCC2)c1nc2cc3c(cc2s1)OCCO3.Cl — higher, 11.2%
- CCOC(=O)c1sc(NC(=S)NC(=O)c2ccco2)nc1C — higher, 9.28%
- Cc1onc(-c2ccccc2)c1C(=O)Nc1nc(-c2cc(F)ccc2F)cs1 — higher, 20.9%
- CCOc1ccc(C2C(C(=O)c3ccco3)=C(O)C(=O)N2Cc2cccnc2)cc1OC (centres unmarked) — lower, -3.53%
- CCOC(=O)c1c(NCCN(C)C)c2ccccc2[nH]c1=O — higher, 8.62%
- O=C(Nc1ccc(Cl)cc1F)C1CCN(S(=O)(=O)c2cccnc2)CC1 — lower, -6.11%
- CCc1ccc(C(=O)CC2(O)C(=O)N(CN3CCOCC3)c3ccccc32)cc1 (centres unmarked) — higher, 6.06%
- CCOC(=O)c1cc(CC)sc1NC(=O)CC1SC(N)=NC1=O (centres unmarked) — higher, 4.26%
- O=C(NC(Cc1c[nH]c2ccccc12)c1nnc2n1CCCCC2)c1ccc(Cl)cc1 (centres unmarked) — lower, 1.99%
- CCOC(=O)C1=C(C)NC2=C(C(=O)c3ccccc32)C1c1cccnc1 (centres unmarked) — lower, -13.1%
- O=C(NCCC1=CCCCC1)C(=O)NCC(c1ccco1)N1CCN(c2ccccc2)CC1 (centres unmarked) — higher, 2.89%
- N#CC(C#N)=C(C#N)c1ccc(Nc2ccccc2)cc1 — higher, 7.22%
- CC(=O)c1ccc(S(=O)(=O)N(C)CCCC(=O)N2CCN(c3ncccn3)CC2)cc1 — lower, -0.663%
- CCOC(=O)c1[nH]nc(-c2cc(CC)c(O)cc2O)c1-c1cscn1 — higher, 14.6%
- Cc1ccc(SCC(=O)Nc2nnc(C(C)(C)C)s2)cc1 — higher, 15%
- Cc1ccc(S(=O)(=O)N2CCC(C(=O)NCCC3=CCCCC3)CC2)cc1C — higher, 4.71%
- CC(C)c1nnc(NC(=O)CCC(=O)NCc2ccco2)s1 — higher, 6.79%
- COc1ccc(C(CNc2ncnc3sccc23)N(C)C)cc1OC (centres unmarked) — higher, 8.55%
- Cc1ccc(CNC(=O)CCn2cc(-c3ccc(C)cc3)nc2CCN)cc1 — higher, 2.59%
- Fc1ccc2nc(N3CCCCC3)sc2c1 — higher, 14.6%
- C=CCn1c(SCC(=O)NC23CC4CC(CC(C4)C2)C3)nc(O)cc1=O — lower, -20.5%
- CC(C)n1c(O)c(/C=C2\C=Nc3ccccc32)sc1=Nc1ccccc1 — higher, 15.4%
- Oc1c(C(c2cccs2)N2CCN(c3ccccc3)CC2)sc2ncnn12 (centres unmarked) — lower, 1.67%
- Cc1ccc(N(C)C(=O)N2CCN(S(=O)(=O)c3ccc(C)c(C)c3)CC2)cc1 — lower, 1.63%
- COc1ccc(-n2c(COc3cccc(C)c3)nnc2SCC(=O)O)cc1 — higher, 10.7%
- CCOc1ccc(C(=O)c2cc([N+](=O)[O-])ccc2Cl)cc1 — higher, 8.81%
- COc1ccccc1OCCOc1ccc(/C=C2/C(=N)N3OC(C)=CC3=NC2=O)cc1OC — lower, -5.87%
- CCc1nnc(NC(=O)c2ccc(COc3ccccc3Cl)o2)s1 — higher, 23.7%
- COc1ccccc1CNC(=O)COC(=O)Cc1ccc(Cl)cc1 — higher, 4.95%
- O=C(NC1CCS(=O)(=O)C1)c1cn(-c2ccccc2)nc1-c1ccccc1 (centres unmarked) — lower, 0.884%
- CCNC(=S)NCc1ccc(F)cc1 — higher, 6.79%
- COc1ccc(CC(=O)Nc2ccc(C)cc2O)cc1S(=O)(=O)N1CCOCC1 — higher, 5.41%
- O=C(CSc1nc2ccccc2s1)NCCOc1ccc(Cl)cc1 — higher, 17.8%
- COCc1nnc(NC(=O)CCc2ccc(OC)cc2)s1 — higher, 12.6%
- Cc1ccc(CC(NC(=O)c2ccccc2)C(=O)NC(CC(C)C)C(=O)O)cc1 (centres unmarked) (Bz-[Phe(4-Me)]-Leu-OH; configuration not given here) — higher, 15.5%
- CSCCC(NC(=O)c1ccccc1Cl)C(=O)NCc1ccncc1 (centres unmarked) — lower, 1.15%
- COCCn1c(N)c(NCc2ccccc2)c(=O)[nH]c1=O — higher, 18.4%
- O=C(COc1ccc2c3c(c(=O)oc2c1)CCC3)NCCCN1CCOCC1 — higher, 20.6%

Source: article PMC4336329 (PLoS ONE, 2015)
